Whole data set: some 110,000 compounds, median “z-score” near -0.1, cut for the highest 2% near 2. Some of the results follow. Active and inactive are the calls of the source.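 How the source made its calls: active means z-score in the third read window above 3 or below -3; inactive means the rest.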
These molecules were tested against Metabotropic glutamate receptor 8 (Rattus norvegicus) (UniProt P70579) (assay: rat mGluR8 modulators via GIRK flux, primary screen, cell-based, thallium flux, HTS (AID 488969)). Settings: HEK293 rat mGluR8, GIRK (G protein-gated inwardly rectifying potassium channel) thallium flux, FluoZin2; at 10 µM; stronger effect = higher value; submaximal glutamate (EC20) added with thallium.
Sequence of UniProt P70579 (P70579 whole entry, looked up): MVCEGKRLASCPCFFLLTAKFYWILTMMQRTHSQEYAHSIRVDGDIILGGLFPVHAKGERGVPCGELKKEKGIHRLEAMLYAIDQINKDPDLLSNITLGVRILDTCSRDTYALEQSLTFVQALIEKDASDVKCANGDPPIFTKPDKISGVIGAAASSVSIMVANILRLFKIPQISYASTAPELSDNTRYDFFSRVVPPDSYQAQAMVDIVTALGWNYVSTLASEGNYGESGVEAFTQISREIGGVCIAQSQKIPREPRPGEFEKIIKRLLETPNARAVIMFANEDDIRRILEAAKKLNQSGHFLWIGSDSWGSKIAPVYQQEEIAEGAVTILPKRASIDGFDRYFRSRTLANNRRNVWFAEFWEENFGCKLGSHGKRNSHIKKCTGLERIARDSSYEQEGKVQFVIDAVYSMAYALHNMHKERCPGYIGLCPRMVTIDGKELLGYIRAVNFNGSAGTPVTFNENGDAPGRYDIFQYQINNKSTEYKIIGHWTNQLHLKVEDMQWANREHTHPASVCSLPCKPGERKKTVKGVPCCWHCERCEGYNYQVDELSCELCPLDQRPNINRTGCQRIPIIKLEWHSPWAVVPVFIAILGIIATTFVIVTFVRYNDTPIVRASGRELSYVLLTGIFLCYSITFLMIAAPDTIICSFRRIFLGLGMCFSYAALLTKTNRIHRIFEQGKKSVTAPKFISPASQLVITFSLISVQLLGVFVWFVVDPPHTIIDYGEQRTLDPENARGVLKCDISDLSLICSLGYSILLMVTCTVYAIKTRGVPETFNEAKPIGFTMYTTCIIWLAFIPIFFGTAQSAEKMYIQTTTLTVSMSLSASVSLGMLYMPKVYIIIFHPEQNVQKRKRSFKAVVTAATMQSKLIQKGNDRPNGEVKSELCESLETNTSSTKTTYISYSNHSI

SMILES | z-score
CN1Cc2cccc3c2C(Cc2ccccc2S3)C1 (stereo unspecified) | -0.0777
O=C(Cn1c(CO)nc2ccccc21)Nc1cc(C(F)(F)F)ccc1N1CCOCC1 | -0.215
Cc1cc(NC(=O)/C=C/c2ccccc2Cl)n(-c2nc3ccccc3[nH]2)n1 | 0.0437
NC1=NC(c2cccc(O)c2)n2c(nc3ccccc32)N1 (stereo unspecified) | -0.0067
Cc1cc(Cl)ccc1Oc1nc(-c2ccccc2)ncc1S(C)(=O)=O | -0.305
CCOC(=O)N1CCN(c2c(N3CCN(c4ccc(OC)cc4)CC3)c(=O)c2=O)CC1 | -0.279
COc1ccccc1N(CC(=O)Nc1ccc2c(c1)OCO2)S(=O)(=O)c1ccccc1 | -0.821
CC12CCC(C(=O)N3CCCc4ccccc43)(CC1=O)C2(C)C (stereo unspecified) | active: 3.5
COc1cc(-c2ccccc2)nc(N)n1 | 0.855
O=C(CN1CC[n+]2c(-c3cccs3)csc21)c1ccc(Br)cc1 | 0.365
CN(C)S(=O)(=O)c1ccc(Cl)c(C(=O)OCC(=O)NC(=O)c2cccn2C)c1 | -0.34
CCOc1cc(NC(=S)Nc2ccccc2)c(OCC)cc1NC(=O)c1ccccc1 | -0.0523
CC(C)(C)n1nnnc1C(c1cccs1)N1CCCc2ccccc21 (stereo unspecified) | -0.607
CN1C(=O)c2ccccc2C(C(=O)NCCCN2CCCC2)C1c1c[nH]c2ccccc12 (stereo unspecified) | 0.231
COc1cc(-n2c(C)nc3cc(C(=O)NCc4ccco4)ccc32)cc(OC)c1OC | 1.11
COc1ccc(-n2nnnc2-c2cn(C)nc2C(F)(F)F)cc1 | -0.0899
COc1ccc(C(=O)Nc2ccc3oc(-c4cccc(F)c4)nc3c2)cc1OC | 0.0486
O=C(c1ccccc1)c1sc(N2CCCCCC2)nc1-c1ccccc1 | -0.175
CC1(C)C(=O)Nc2ccccc2N1C(=O)COC(=O)C12CC3CC(CC(O)(C3)C1)C2 | -0.0676
Cc1ccc(OC(=O)N2CCOCC2)cc1 | 0.226
CCOC(=O)N1CCN(CC(=O)n2c(C)c(C)c3ccccc32)CC1 | 1.1
COC(=O)[C@H](CCSC)NC(=O)N1CCN(c2cccc(C(F)(F)F)c2)CC1 | -1.13

SMILES | z-score
Cc1ccc(C(=O)C2C(c3ccc(-c4ccccc4[N+](=O)[O-])o3)NC(=O)NC2(O)C(F)(F)F)cc1 (stereo unspecified) | 0.305
N#Cc1cn(CC(=O)NCc2cccnc2)c2ccccc12 | -0.104
O=C(O)c1cc(CN2CCOCC2)oc1-c1ccccc1 | 0.271
CCOc1ccc(Br)cc1S(=O)(=O)Nc1ccc(Cl)c(S(=O)(=O)N(CC)c2ccccc2)c1 | -0.145
CCOc1ccccc1N1CCN(c2nc(N)c(C#N)c(CC#N)c2C#N)CC1 | -2.53
CCOC(=O)C1=C(C)NC(=O)NC1c1ccc(OC(=O)c2ccco2)cc1 (stereo unspecified) | 0.2
CCOC(=O)C1CCN(C(=O)c2sc3ncnc(N4CCC(C)CC4)c3c2C)CC1 | -0.496
O=C(/C=C/Nc1ccccc1Br)c1ccccn1 | -0.307
COC(=O)CN(C#N)c1nc(SC)nc(N(C)C)n1 | -0.674
CCCCCCOc1ccc(OC(=O)c2ccncc2)cc1 | -0.355
COc1ccccc1C(O)(C(=O)NNc1ccccc1C)c1ccccc1OC | -0.123
O=C(CSc1nnc(-c2ccncc2)n1Cc1ccco1)c1ccc(Cl)cc1 | -0.516
CC1(C)OC(=O)N2CCc3ccccc3C21C (stereo unspecified) | -0.43
Cc1ccc2c(c1)c1c(n2CC(O)CNC(C)(C)C)CCCC1 (stereo unspecified) | 2.4
CCN(c1ccccc1)S(=O)(=O)c1ccc(F)cc1C | -0.392
CC(=O)Nc1ccc(S(=O)(=O)NCCc2ccc(F)cc2)cc1 | -0.135
COCCn1c(SCC(=O)NC(=O)NC(C)C)nc2ccccc21 | -0.123
COc1ccc(NC(=S)NCc2ccc(S(N)(=O)=O)cc2)c(OC)c1 | 0.136
CCCn1c(SCC(=O)NC(C)C23CC4CC(CC(C4)C2)C3)n[nH]c1=O (stereo unspecified) | 0.0276
CCOC(=O)N1CCN(Cc2nc3c(c(=O)n(C)c(=O)n3C)n2CCCc2ccccc2)CC1 | -0.265
COc1cccc(N=Cc2c[nH][nH]c2=O)c1 | -0.323
CC1CCc2nn(CC(=O)N3CCc4ccccc43)cc2C1 (stereo unspecified) | 0.16

SMILES | z-score
CC(=O)c1ccc(OC(=O)C2CC(=O)N(c3cccc(C)c3)C2)cc1 (stereo unspecified) | -1.58
Cc1ccc(-c2nc3cnccn3c2Nc2ccc3c(c2)OCO3)cc1 | -0.0623
O=C(NC(Cc1c[nH]c2ccccc12)C(=O)Nc1ccc(OC(F)(F)F)cc1)c1cccs1 (stereo unspecified) | -0.131
CCOC(=O)N1CCC(Nc2c(N3CCN(c4cc(Cl)ccc4C)CC3)c(=O)c2=O)CC1 | -2.82
COc1ccc(-c2noc(CCCOc3ccc(Cl)cc3Cl)n2)cc1 | -0.158
CC1CN(c2cc(-c3ccccc3)c3ccccc3n2)CC(C)O1 (stereo unspecified) | -0.832
O=C(Cn1nnc(-c2ccccc2)n1)N/N=C/c1ccc(-c2ccc(Cl)cc2)o1 | -0.788
CCN1CCN(Cc2c(C)[nH]c3ccc(C(=O)OC)cc3c2=O)CC1 | 0.325
C=CCn1c(SCc2csc(C)n2)nc2scc(-c3ccc(C)o3)c2c1=O | -0.206
CCOC(=O)Cc1csc(NC(=O)CSc2nnc(C3CC3)n2C)n1 | 0.34
CC(CC(=O)Nc1ccc2c(c1)OCCO2)c1ccccc1 (stereo unspecified) | -0.222
CCC(C)C(NS(=O)(=O)c1ccc(C)cc1)C(=O)Oc1ccc2c3c(c(=O)oc2c1)CCC3 (stereo unspecified) | -0.384
CS(=O)(=O)c1ccc2nc(NC(=O)Nc3ccc(Cl)c(Cl)c3)sc2c1 | active: 3.23
Cc1cc2cc(C)c3nnc(SCC(=O)NCc4ccc5c(c4)OCO5)n3c2cc1C | -0.28
COc1ccc(CNC(=O)C2CCCN(c3nc4ccccc4o3)C2)c(OC)c1 (stereo unspecified) | 0.18
CCC1CCc2c(sc(NC(=O)C3c4ccccc4Oc4ccccc43)c2C(N)=O)C1 (stereo unspecified) | -0.292
c1ccc2c(c1)OCC(c1nnc3sc(-c4ccc5c(c4)OCO5)nn13)O2 (stereo unspecified) | -1.12
COc1cc2c(cc1NC(=S)Nc1cccc3ccccc13)oc1ccccc12 | 0.159
COc1ccnc(NCc2cccc(C(F)(F)F)c2)c1C#N | -0.304
CC(C)c1ccc(N(CC(=O)O)S(=O)(=O)c2cccnc2)cc1 | -0.545
O=C(CC1C(=O)N(c2ccc(Cl)cc2)C(=S)N1CCc1ccncc1)Nc1ccc(F)cc1 (stereo unspecified) | -0.12
CN(C(=O)CSc1nnc2ccccn12)c1c(N)n(Cc2ccccc2)c(=O)[nH]c1=O | -0.124

SMILES | z-score
Cc1ccc(N(C(=O)CS(=O)CC(=O)Nc2ccc(F)cc2)C(C(=O)NC2CCCCC2)c2ccco2)cc1 (stereo unspecified) | -0.219
O=C(c1ccc(Cl)cc1)c1cnc(Nc2ccccc2Cl)s1 | 0.181
O=C(Cc1cccs1)OCC(=O)c1ccco1 | 0.297
COc1ccc(NC(=O)CSc2nc(C)c3c(c2C#N)CCCC3)cc1 | -1.09
O=C([C@H](Cc1ccccc1)NS(=O)(=O)c1ccc(Cl)cc1)N1CC[C@@]2(O)CCCC[C@H]2C1 | -0.15
CCOc1ccc(NC(=O)CSc2nnc(C)n2Cc2ccccc2)cc1 | -0.275
Cc1noc(NS(=O)(=O)c2ccc(NC(=O)CSc3nnc(-c4ccccc4)n3C3CCCCC3)cc2)c1C | -0.348
Cc1cc(C)c(NC(=O)COC(=O)CCc2ccc(S(=O)(=O)N3CCCCC3)cc2)c(C)c1 | -0.0684
CN1C(=O)NC(c2ccccc2)C2=C1CN(CCc1ccccc1)C2=O (stereo unspecified) | 0.0172
COc1ccc(CC(=O)NNC(=O)c2ccoc2C)cc1OC | 0.0579
O=C(Nc1ccncc1)c1cn(-c2ccccc2)nc1-c1cccs1 | -0.466
Cc1cccc(C)c1OCC(=O)Nn1c(COc2ccccc2)nc2ccccc2c1=O | -0.0916
COc1ccc(-c2nc(CS(=O)CC(=O)NCc3ccc(Cl)cc3)c(C)o2)cc1 (stereo unspecified) | -0.272
N#CC(C#N)C(c1ccsc1)c1c(-c2ccccc2)[nH][nH]c1=O (stereo unspecified) | -0.151
CCC1C/C(=C\c2cccnc2)C(=O)/C(=C/c2cccnc2)C1 (stereo unspecified) | 0.0883
O=C(NCc1ccco1)c1ccc(CS(=O)(=O)Cc2ccc(Cl)cc2)o1 | -0.145
CCOc1ccc(C(=O)NC(=S)Nc2ccccc2N2CCC(C)CC2)cc1[N+](=O)[O-] | 0.648
CCCS(=O)(=O)N1CCCC(C(=O)NCCN(CC)c2ccccc2)C1 (stereo unspecified) | 0.077
CC[C@@H](C)[C@H](NC(=O)C1CCN(C(=O)[C@@H](NS(=O)(=O)c2ccc(C)cc2)C(C)C)CC1)C(=O)O | 0.0365
CC1Cc2ccccc2N1Cc1nc2cc(C(F)(F)F)ccc2c(=O)[nH]1 (stereo unspecified) | 1.57
O=C(O)C1CC(=O)N(c2ccc(OCc3ccccc3Cl)cc2)C1 (stereo unspecified) | -0.652
Cc1cc(C)c2nc(SCCC#N)nc(C)c2c1 | -0.12

SMILES | z-score
O=C(c1nsc(Cl)c1Cl)N1CCCCC1 | 0.0424
CCCCC(C(=O)NC(=O)NCc1ccccc1)N1C(=O)c2ccccc2C1=O (stereo unspecified) | -0.286
CCC(C)NC(=O)CN(C)S(=O)(=O)c1ccc2c(c1)c(=O)n(C)c(=O)n2C (stereo unspecified) | -0.235
COc1ccc(N2C(=O)CC(N3CCN(c4ccccc4F)CC3)C2=O)cc1 (stereo unspecified) | -0.0689
COc1cc(NC(=O)c2cc3c(=O)n(C)c4ccccc4c3n2C)cc(OC)c1OC | -0.967
Cc1ccnc(-n2sc3ccccc3c2=O)n1 | -0.415
CCCc1nn(C)c(C(=O)Nc2ccc(C)c(C)c2)c1Cl | -0.0927
COC(=O)CN1CCN(C(c2ccccc2)c2ccccc2)CC1 | -0.0339
N/C(CC(=O)Nc1ccc(F)cc1)=N\O | 0.135
O=S(=O)(c1cccs1)n1cnc2ccccc21 | -0.271
N#Cc1c(Nc2ccccc2)c(C=NCCN2CCOCC2)c[nH]c1=O | -0.167
CCC(C)(C)n1nnnc1C(c1ccccn1)N1CCOCC1 (stereo unspecified) | 0.0153
COc1ccc(Nc2nnc(SCc3cc([N+](=O)[O-])cc4c3OCOC4)s2)cc1 | -0.342
Cc1ccc(CO/N=C\Cc2snc(Sc3ncc(C(F)(F)F)cc3Cl)c2C#N)cc1 | 0.0198
CCC(C)c1ccc(NC(=O)c2cccs2)cc1 (stereo unspecified) | -0.675
CC#CCCCC(=O)Nc1cccc(C(=O)O)c1 | -0.382
Cc1cc(Nc2ccc(Cl)cc2)nc(NCc2ccccc2)n1 | -0.173
O=C(COC(=O)c1ccc(Cl)cc1O)Nc1cccnc1Cl | -0.067

From PubChem BioAssay AID488969 (Vanderbilt High Throughput Screening Facility, 2010)
